From PubChem BioAssay AID652104 (National Center for Advancing Translational Sciences (NCATS), 2013)
Out of some 410,000 compounds screened, about 7,200 (1.8%) were called active. Inconclusive results, whose numbers are uncertain, are shown with a selection of clear calls. Calls follow the shape of the dose curve; as a rule, active = well fitted activation curve with a large enough effect; inconclusive = small, poorly fitted or top-dose-only effect, or another doubt; inactive = no such curve, though single readings can be large or run the other way. Potencies of inconclusive entries are left out as doubtful fits.

Experiment: qHTS of TDP-43 Inhibitors; also: nearly all actives have a fitted effect of over 50% in size; as to growth rescue (activation): % of control where 0% means no effect
Details: TDP-43 expressing yeast growth rescue, BacTiter-Glo, 24 h; growth rescue (activation): at 46.1 µM (top of the series) unless noted
How it was run: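 Luminescence from BacTiter-Glo reports growth of TDP-43-expressing yeast after 24 hr at 30 deg C with compound. Cells were raffinose-pregrown to mid-log, then seeded in galactose medium at OD600=0.02.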
Potency is read from the fitted curve at half-maximal effect; tags tell the direction and shape of the fitted curve.

SMILES	Potency	growth rescue (activation)
Clc1ccccc1OCCSc1nnc(-c2cccs2)o1	inconclusive [activator, partial curve, poor fit]	
CCc1ccc2oc(-c3ccc(C)c(NC(=O)/C=C/c4ccco4)c3)nc2c1	inactive	
Cc1ccccc1-c1nc2scc(CCNC(=O)c3ccco3)n2n1	active: 17.8 µM	
CCn1cc(CNC(=O)c2cc(-c3ccc(C)cc3)nc3ccc(Br)cc23)c(C)n1	inactive	
CCOc1ccc(CCNC(=O)C2CCCN(S(=O)(=O)N(C)c3ccc(F)cc3)C2)cc1 (stereo unspecified)	inactive	
COc1ccc(-c2cc(-c3ccc(C)cc3)nc3c2COc2ccccc2-3)cc1	inactive	
Cc1ccc(C(=O)O/N=C(\N)c2ccccn2)cc1	inconclusive [activator, single point]	
CCCCc1cc(=O)oc2cc(C)cc(O)c12	inconclusive [activator, partial curve]	
O=C(C#Cc1ccccc1)c1cccc([N+](=O)[O-])c1		inconclusive: -49.5% [activator]
O=C(COC(=O)c1ccc2ncsc2c1)Nc1cccc(Cl)c1	inconclusive [activator, single point]	
CCn1ncc(Br)c1C(=O)Nc1ccn(C23CC4CC(CC(C4)C2)C3)n1	inconclusive [activator, partial curve]	
Cc1cc(-c2nnc(-c3cccc(C(F)(F)F)c3)o2)no1	inconclusive [activator, partial curve]	
COC(=O)C1=C(C)N(C)C(=O)/C1=C\c1cccs1	inconclusive [activator, single point]	
O=c1nc2s/c(=C\c3ccco3)c(=O)n2nc1Cc1ccc(F)cc1	inconclusive [activator, partial curve]	
Cn1ncc(C(=O)Nc2ccc(OC(F)(F)F)cc2)c1-n1cccc1	active: 12.6 µM	
O=C(O)c1c(-n2cccc2)sc2c1CCCC2	inconclusive [activator, single point]	
Cn1ccc2c(N3c4ccccc4CCc4ccccc43)cc3c(c21)C1CCC3O1 (stereo unspecified)	inconclusive [activator, full curve]	
COc1cc(OC)c(C(=O)O/N=C(\N)c2ccccc2)cc1OC	inconclusive [activator, single point]	
O=C(NCc1ccc(Cl)cc1)c1cc2c(s1)-c1ccccc1SC2	inactive	
CC1CCc2onc(C(=O)N3CCN(c4ccccc4)CC3)c2C1 (stereo unspecified)	inconclusive [activator, partial curve]	
CC(=O)c1cc(CN2C(=O)c3ccccc3C2=O)cs1	active: 14.1 µM	
Cc1cc(-c2ccccc2)n(-c2cc(N/N=C/c3ccccc3O)ncn2)n1	inconclusive [activator, full curve, poor fit]	
CC1CCCC(NC(=O)c2ccc3c(c2)OCCO3)C1C (stereo unspecified)	inconclusive [activator, single point]	

SMILES	Potency	growth rescue (activation)
Cc1nc(N2CCOCC2)c2c(C(=O)N3CCN(c4ccccc4F)CC3)c(C)oc2n1	inactive	
O=C(COC(=O)c1ccc([N+](=O)[O-])o1)Nc1ccc(F)cc1	active: 15.8 µM	
Cn1c(N)c(C(=O)COC(=O)c2ccc(C(F)(F)F)cc2)c(=O)n(C)c1=O	inconclusive [activator, single point]	
O=C(CSC1=NCCS1)Nc1nc(-c2ccccc2)cs1	active: 22.4 µM	
CCc1nnc2c(N3CCN(c4cccc(C)c4)C(C)C3)nc3ccccc3n12 (stereo unspecified)	inactive	
Cc1nn(C)c(Cl)c1NC(=O)OCc1ccc(Cl)cc1Cl	inconclusive [activator, partial curve]	
CCCCCCCNC(=O)C1(CC2CC(c3ccc(Cl)cc3)=NO2)CCN(C(=O)C2(C)CC2)CC1 (stereo unspecified)	inconclusive [activator, single point]	
Cc1ccc(N2C(=O)CC(c3ccccc3F)C3=C2COC3=O)cc1Cl (stereo unspecified)	inconclusive [activator, single point]	
CCc1ccc(N(CC)C(=O)Cc2c(C(=O)O)n(C)c3ccccc23)cc1	active: 28.2 µM	
COc1ccc(CNC(=O)c2cnc3sc(N4CCC(C)CC4)nn3c2=O)c(OC)c1	inactive	
O=C(CSc1nnnn1C1CCCCC1)Nc1ccc(F)cc1	inactive	
COc1ccc(OC)c(C(=O)CC2OC(=O)c3ccccc32)c1 (stereo unspecified)	inconclusive [activator, partial curve]	
COc1cc(OC)cc(C(=O)Nc2cc3c(cc2N2CCCCC2)n(C)c(=O)n3C)c1	inconclusive [activator, single point]	
CCc1ccccc1NC(=O)Cn1c(=O)n(Cc2ccco2)c(=O)c2ccccc21	inactive	
CC(C)CNC(=O)c1ccc(-c2ccc(F)c(F)c2)c2ccoc12	inconclusive [activator, partial curve]	
COC(=O)C1=C(C)NC(C)=C(C(=O)OC)C1c1cn(-c2ccccc2)nc1-c1ccco1	inconclusive [activator, partial curve]	
Cc1ccc(C(=O)c2ccc(O)cc2)cc1C	active: 17.8 µM	
COc1ccc(-c2nc(C#N)c(NCc3ccco3)o2)cc1	inconclusive [activator, partial curve]	
CCOC(=O)N1CCN(C(=O)C2CCN(C(=O)c3cc4sccc4n3CC)CC2)CC1	inconclusive [activator, partial curve]	
CCCC(=O)N(C1CC(C)C(C#N)(C#N)C1(C#N)C#N)N(C)C (stereo unspecified)	inconclusive [activator, single point]	
CN(C)Cc1c(C(C)(C)O)[nH]c2ccc(C(F)(F)F)cc12	inactive	
c1ccc(-c2cc3c(N4CCOCC4)ncnc3s2)cc1	inconclusive [activator, partial curve]	
COc1ccc(Cl)cc1NC(=S)NCCc1c[nH]c2ccccc12	inconclusive [activator, single point]	
